# Source: paper doi:10.1101/2024.11.01.621267 (bioRxiv, 2024)
# B1: recombinant FL-LARP4-Strep-tagII (natural protein)
# chain: not shown
# notes: also called LARP4-WT; pLIB-LARP4; source: Sf21 insect cells (baculovirus), cleared lysate immobilised on StrepTactin resin and washed; not shown: StrepII, C-terminal, kept
# Biological target: purified recombinant His6-RACK1 (human, UniProt P63244)
# Experiment: pull-down; StrepII-tagged protein immobilised from cleared lysate on StrepTactin Sepharose and washed; 500 pmol of purified RACK1 added; 50 mM HEPES pH 8.0, 500 mM NaCl, 0.03% Tween-20; eluted with 50 mM biotin; Coomassie staining
# Details: both partners purified
binder,measurement,value
B1,binding result,binds
